PubChem BioAssay AID493208 (National Center for Advancing Translational Sciences (NCATS), 2011)
Out of some 44,000 compounds screened, about 340 (0.77%) were called active. Roughly 5% stayed inconclusive and do not appear here. Calls follow the shape of the dose curve; as a rule, active = well fitted inhibition curve with a large enough effect; inconclusive = small, poorly fitted or top-dose-only effect; inactive = flat fitted curve, though single readings scatter. This is one part of the list.

assay: Acumen qHTS Assay for Inhibitors of the mTORC1 Signaling Pathway in MEF (Tsc2-/-, p53-/-) Cells: Sytravon; conditions: phospho-rpS6 immunofluorescence/PI, 24 h; series mostly up to 38.3 µM; activity change, negative = inhibition: at the top concentration;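 also: plate controls were DMSO for no effect and rapamycin for full effect; nearly all actives have a fitted effect of over 50% in size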
Outline: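 Cell-based qHTS: Tsc2-/- p53-/- MEF, 24 h cpd, 37 °C; fix/perm, anti-phospho-S6 Alexa-488 + PI; Acumen 488 nm scan; pS6/PI ratio, % positive cells; rapamycin 7.5 nM = inhibition ref; PI count = viability.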

Activity change, negative = inhibition, inactive:
COc1ccc(C)cc1NC(=O)CSc1nc(=O)n(Cc2ccncc2)c2c1CCC2 0.518%
C=Cc1ccc(CN2C(=O)N(c3ccc(CC)cc3)S(=O)(=O)c3ccccc32)cc1 -5.04%
COc1ccc(C(=O)NCCc2sc(-c3ccc(Cl)cc3)nc2C)c(OC)c1 -16.7%
Cc1ccc(C)c(CN2C(=O)c3ccccc3S(=O)(=O)c3ccc(C(=O)N4CCN(c5ccccn5)CC4)cc32)c1 0.622%
CCc1cccc(N2C(=O)N(CC(=O)NCc3cccc(OC)c3OC)c3ccccc3S2(=O)=O)c1 -8.3%
CCCN1C(=O)C(Cc2nc3ccccc3c(=O)n2-c2ccccc2)c2cc(C)ccc21 (stereo not given) -28.3%
COc1cc(NC(=O)CN2C(=O)COc3ccc(S(=O)(=O)N4CCCCC4)cc32)cc(OC)c1 1.96%
CCOC(=O)COc1ccc(C)cc1C(=O)c1ccn2nc(-c3ccc(C)cc3)cc2n1 -0.822%
COC(=O)c1ccc(OCC2c3cc(OC)c(OC)cc3CCN2C(=O)C(C)C)cc1 (stereo not given) 0%
COCCNC(=O)c1ccc(CSc2nc3ccncc3n2Cc2ccccc2)cc1 0.863%
O=C(CSc1ncc2c(n1)-c1ccccc1N(Cc1ccccc1)S2(=O)=O)Nc1ccccc1 0%
CCC(=O)N1CCc2cc(S(=O)(=O)CCC(=O)N3CCN(c4cc(C)ccc4C)CC3)ccc21 1.79%
COc1cccc(NC(=O)CSc2nc3ccccc3n2C)c1 0.32%
CCOc1ccc(NC(=O)c2c(NC(=O)Cc3ccccc3)sc3c2CCC(C)C3)cc1 (stereo not given) -3.61%
COc1ccc(OC)c(NC(=O)CN(C)S(=O)(=O)c2ccc3[nH]c4c(c3c2)CCCC4)c1 2.54%
CCOc1ccc(C(=O)NCC(c2ccc3c(c2)OCO3)N2CCN(c3ccccc3F)CC2)cc1 (stereo not given) -5.73%
COCCCNC(=O)C1CCN(Cc2nc(-c3ccc(OC)c(OC)c3)oc2C)CC1 -4.15%
COc1ccc(Cn2nnc(C(=O)Nc3cc(OC)ccc3OC)c2N)cc1 -10.4%
COc1ccc(OC)c(CCNC(=O)c2c(C)nn(-c3ccc(F)cc3)c2-n2cccc2)c1 -7.53%
CCn1c(=O)cc(SCC(=O)NCCc2cc(OC)ccc2OC)c2ccccc21 15.5%
Cc1nnc(N2CCC(C(=O)NC3CCCCC3)CC2)c2nn(-c3ccc(Cl)cc3)c(C)c12 -7.33%
CCOc1ccc(NC(=O)c2c(NCc3ccc(C)o3)sc3c2CCC(C)C3)cc1 (stereo not given) -4%
O=C(CN1C(=O)COc2ccc(Cl)cc21)Nc1ccc(F)cc1 -12.3%
CCN(C(=O)c1nn(-c2ccc(OC)c(Cl)c2)c(=O)c2c1c1ccccc1n2C)c1cccc(C(F)(F)F)c1 1.63%
CCCOc1cccc(C(=O)Nc2cccc3cccnc23)c1 0.352%
